# In the supplement of paper PMC4604168 (melanoma cell lines):
# The list shows a part of the results. Many values rest on one well or one pass, so single values are uncertain.
# Test system: IST-MEL1
# Assay: cell count relative to DMSO control; melanoma cells; higher = more viable cells
# Details: library dose: low library concentration; 72 h
# 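Also: cell number obtained by counting DAPI-stained nuclei in high-throughput microscope images with image analysis software, screen run in 1,536-well plates.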
row,Structure (SMILES),cell count [%]
1,"C[C@]12O[C@H](C[C@]1(O)CO)n1c3ccccc3c3c4c(c5c6ccccc6n2c5c31)CNC4=O [Lestaurtinib] + CNC(=O)c1cc(Oc2ccc(NC(=O)Nc3ccc(Cl)c(C(F)(F)F)c3)cc2)ccn1 [sorafenib] (first compound 0.004 µM, partner dose 0.4 µM)",97.3
2,"N.N.[Cl][Pt][Cl] [cisplatin] + CO[C@H]1C[C@@H]2CC[C@@H](C)[C@@](O)(O2)C(=O)C(=O)N2CCCC[C@H]2C(=O)O[C@H]([C@H](C)C[C@@H]2CC[C@@H](OCCO)[C@H](OC)C2)CC(=O)[C@H](C)/C=C(\C)[C@@H](O)[C@@H](OC)C(=O)[C@H](C)C[C@H](C)/C=C/C=C/C=C/1C [everolimus] (first compound 1.6 µM, partner dose 0.02 µM)",71.9
3,"C[C@]12O[C@H](C[C@]1(O)CO)n1c3ccccc3c3c4c(c5c6ccccc6n2c5c31)CNC4=O [Lestaurtinib] + C=CCNC1=C2C[C@@H](C)C[C@H](OC)[C@H](O)[C@@H](C)/C=C(\C)[C@H](OC(N)=O)[C@@H](OC)/C=C\C=C(/C)C(=O)NC(=CC1=O)C2=O [Tanespimycin] (first compound 0.004 µM, partner dose 0.002 µM)",104
4,"C[C@]12O[C@H](C[C@]1(O)CO)n1c3ccccc3c3c4c(c5c6ccccc6n2c5c31)CNC4=O [Lestaurtinib] + COc1ccc(Cl)c(Nc2nc3ccccc3nc2NS(=O)(=O)c2cccc(NC(=O)C(C)(C)N)c2)c1 [XL147] (first compound 0.004 µM, partner dose 0.8 µM)",88.1
5,"C[C@]12O[C@H](C[C@]1(O)CO)n1c3ccccc3c3c4c(c5c6ccccc6n2c5c31)CNC4=O [Lestaurtinib] + CCN(CC)CCNC(=O)c1c(C)[nH]c(/C=C2\C(=O)Nc3ccc(F)cc32)c1C [sunitinib] (first compound 0.004 µM, partner dose 0.4 µM)",99.5
6,"C[C@]12O[C@H](C[C@]1(O)CO)n1c3ccccc3c3c4c(c5c6ccccc6n2c5c31)CNC4=O [Lestaurtinib] + CS(=O)(=O)c1ccc(C(=O)Nc2ccc(Cl)c(-c3ccccn3)c2)c(Cl)c1 [vismodegib] (first compound 0.004 µM, partner dose 1 µM)",94.7
7,"C[As](C)SC[C@H](NC(=O)CC[C@H](N)C(=O)O)C(=O)NCC(=O)O [Darinaparsin] + Cn1cc(/C=C2\C(=O)Nc3cccnc32)c2ccccc21 [GW441756] (first compound 0.4 µM, partner dose 0.4 µM)",100
8,"C[C@]12O[C@H](C[C@]1(O)CO)n1c3ccccc3c3c4c(c5c6ccccc6n2c5c31)CNC4=O [Lestaurtinib] + CC(=O)c1c(C)c2cnc(Nc3ccc(N4CCNCC4)cn3)nc2n(C2CCCC2)c1=O [palbociclib] (first compound 0.004 µM, partner dose 0.04 µM)",95
9,"C[C@]12O[C@H](C[C@]1(O)CO)n1c3ccccc3c3c4c(c5c6ccccc6n2c5c31)CNC4=O [Lestaurtinib] + Nc1nc(F)nc2c1ncn2[C@@H]1O[C@H](CO)[C@@H](O)[C@@H]1O [fludarabine] (first compound 0.004 µM, partner dose 0.2 µM)",90.9
10,"Cn1cc(C2=C(c3cn(C4CCN(Cc5ccccn5)CC4)c4ccccc34)C(=O)NC2=O)c2ccccc21 [Enzastaurin] + C[C@]12O[C@H](C[C@]1(O)CO)n1c3ccccc3c3c4c(c5c6ccccc6n2c5c31)CNC4=O [Lestaurtinib] (first compound 0.8 µM, partner dose 0.004 µM)",109
11,"C[C@]12O[C@H](C[C@]1(O)CO)n1c3ccccc3c3c4c(c5c6ccccc6n2c5c31)CNC4=O [Lestaurtinib] + CS(=O)(=O)CCNCc1ccc(-c2ccc3ncnc(Nc4ccc(OCc5cccc(F)c5)c(Cl)c4)c3c2)o1 [lapatinib] (first compound 0.004 µM, partner dose 0.8 µM)",107
12,"C[C@]12O[C@H](C[C@]1(O)CO)n1c3ccccc3c3c4c(c5c6ccccc6n2c5c31)CNC4=O [Lestaurtinib] + Clc1ccc(Nc2nnc(Cc3ccncc3)c3ccccc23)cc1 [vatalanib] (first compound 0.004 µM, partner dose 2 µM)",96.8
